This note sets out measurements from DBAASP.

Among the test systems are Klebsiella pneumoniae; Staphylococcus aureus; Escherichia coli; Pseudomonas aeruginosa; Proteus mirabilis; Shigella dysenteriae; Micrococcus luteus; Salmonella typhimurium; Bacillus subtilis; Listeria innocua; Micrococcus luteus A270; Pasteurella multocida; Streptococcus uberis; Leuconostoc lactis; Bacillus cereus; Staphylococcus xylosus.
What all share (assay): ≥ marks a high value that may be exact or a test limit, other limits are often not marked
Experiment [1] relates to Staphylococcus epidermidis.
For experiment [2], the system named is Salmonella enterica subsp. enterica serovar Enteritidis.
Experiment [3] relates to Candida albicans NCPF 1467.
Experiment [4] has as its system Staphylococcus aureus NCTC 10788.
The subject of experiment [5] is Escherichia coli NCTC 10418.
In experiment [6] the test system is Escherichia coli DH5alpha.

Values after ≈ are worked out from the molar mass of the structure shown.

By MIC is commonly meant the lowest concentration found to suppress growth. High values mean weaker potency, low ones greater potency. Turning to `CC(C)C[C@H](NC(=O)[C@H](C)NC(=O)CNC(=O)[C@@H](N)CC(C)C)C(=O)N[C@@H](Cc1ccccc1)C(=O)N[C@@H](CCCCN)C(=O)N[C@H](C(=O)N[C@@H](C)C(=O)N[C@@H](CO)C(=O)N[C@@H](CCCCN)C(=O)N[C@H](C(=O)N[C@@H](CC(C)C)C(=O)N1CCC[C@H]1C(=O)O)C(C)C)C(C)C` [LGALFKVASKVLP], the MIC in experiment [1] is not below 149 µM; in the experiment with Klebsiella pneumoniae, more than 149 µM; against Staphylococcus aureus, more than 149 µM; in the experiment on Escherichia coli, more than 149 µM; against Pseudomonas aeruginosa, more than 149 µM; against Proteus mirabilis, not below 149 µM. Moreover, the MIC with Shigella dysenteriae, with Micrococcus luteus, with Salmonella typhimurium and against Bacillus subtilis was not below 149 µM in each case.
In the case of `CC(C)C[C@H](NC(=O)[C@@H](N)C(C)C)C(=O)N[C@@H](CO)C(=O)N[C@@H](C)C(=O)N[C@@H](C)C(=O)N[C@@H](CC(=O)O)C(=O)N[C@@H](CCCCN)C(=O)NCC(=O)N[C@@H](CC(N)=O)C(=O)N[C@H](C(=O)N[C@@H](CCCCN)C(=O)N[C@@H](C)C(=O)N[C@@H](C)C(=O)N[C@@H](Cc1c[nH]c2ccccc12)C(=O)NCC(=O)N[C@@H](CCCCN)C(=O)N[C@H](C(=O)NCC(=O)NCC(=O)N[C@@H](Cc1cnc[nH]1)C(=O)N[C@@H](C)C(=O)N[C@@H](C)C(=O)N[C@@H](CCC(=O)O)C(=O)O)C(C)C)C(C)C` [VLSAADKGNVKAAWGKVGGHAAE], the MIC against Listeria innocua is not below 54 µM; in experiment [2], 27 µM (≈ 60.4 µg/mL); in the experiment on Escherichia coli it was 54 µM (≈ 121 µg/mL); against Micrococcus luteus A270 it was not below 100 µM.
For `CC[C@H](C)[C@H](NC(=O)[C@@H](NC(=O)[C@@H]1CCCN1C(=O)[C@@H](NC(=O)[C@@H](NC(=O)[C@H](Cc1cnc[nH]1)NC(=O)CNC(=O)[C@H](CC(C)C)NC(=O)[C@@H](NC(=O)[C@H](Cc1cnc[nH]1)NC(=O)[C@H](CCCCN)NC(=O)[C@H](C)NC(=O)[C@@H](NC(=O)[C@H](CO)NC(=O)CNC(=O)[C@H](CC(C)C)NC(=O)[C@@H](NC(=O)[C@H](CO)NC(=O)[C@H](CC(C)C)NC(=O)[C@H](CC(C)C)NC(=O)CN)C(C)C)C(C)C)C(C)C)C(C)C)C(C)C)C(C)C)C(=O)N[C@@H](C)C(=O)N[C@@H](CCC(=O)O)C(=O)N[C@@H](Cc1cnc[nH]1)C(=O)N[C@@H](CC(C)C)C(N)=O` [GLLSVLGSVAKHVLGHVVPVIAEHL], the MIC was 19.6 µM (≈ 50 µg/mL) in the experiment with Listeria innocua; not below 39.3 µM in [1]; 19.6 µM (≈ 50 µg/mL) against Pasteurella multocida; 13.9 µM (≈ 35.3 µg/mL) in the experiment with Staphylococcus aureus; more than 39.3 µM against Escherichia coli; 19.6 µM (≈ 50 µg/mL) against Streptococcus uberis. In addition, the MIC in the experiment on Leuconostoc lactis was 4.91 µM (≈ 12.5 µg/mL); against Micrococcus luteus it was 9.82 µM (≈ 25 µg/mL); in the experiment on Bacillus cereus, not below 39.3 µM.
On to `CC[C@H](C)[C@H](NC(=O)[C@H](C)NC(=O)[C@H](Cc1cnc[nH]1)NC(=O)[C@@H]1CCCN1C(=O)[C@@H](NC(=O)[C@H](CC(C)C)NC(=O)[C@H](CO)NC(=O)[C@H](Cc1ccccc1)NC(=O)[C@@H]1CCCN1C(=O)[C@@H](N)Cc1ccccc1)[C@@H](C)CC)C(=O)NCC(=O)NCC(=O)N[C@@H](CC(C)C)C(=O)N[C@H](C(=O)N[C@@H](CO)C(=O)N[C@@H](C)C(=O)N[C@H](C(=O)N[C@@H](CCCCN)C(=O)O)[C@@H](C)CC)[C@@H](C)CC` [FPFSLIPHAIGGLISAIK], for which the MIC in [3] was not below 64 µM; in experiment [4] it was not below 48 µM; in [5], not below 120 µM.
`CC[C@H](C)[C@H](NC(=O)[C@@H](NC(=O)CNC(=O)[C@@H](NC(=O)[C@@H](NC(=O)[C@H](Cc1cnc[nH]1)NC(=O)CNC(=O)[C@H](CC(C)C)NC(=O)[C@@H](NC(=O)[C@H](Cc1cnc[nH]1)NC(=O)[C@H](CCCCN)NC(=O)[C@H](C)NC(=O)[C@@H](NC(=O)[C@H](CO)NC(=O)CNC(=O)[C@H](CC(C)C)NC(=O)[C@@H](NC(=O)[C@H](CO)NC(=O)[C@H](CC(C)C)NC(=O)[C@H](CC(C)C)NC(=O)CN)C(C)C)C(C)C)C(C)C)C(C)C)C(C)C)C(C)C)C(=O)N[C@@H](C)C(=O)N[C@@H](CCC(=O)O)C(=O)N[C@@H](Cc1cnc[nH]1)C(=O)N[C@@H](CC(C)C)C(N)=O` [GLLSVLGSVAKHVLGHVVGVIAEHL]: the MIC was 20 µM (≈ 50 µg/mL) against Listeria innocua; not below 39.9 µM in experiment [1]; not below 39.9 µM with Pasteurella multocida; 14.1 µM (≈ 35.3 µg/mL) in the experiment on Staphylococcus aureus; more than 39.9 µM against Escherichia coli; 4.99 µM (≈ 12.5 µg/mL) against Streptococcus uberis. In addition, the minimum inhibitory concentration (MIC) in the experiment on Leuconostoc lactis was found to be 4.99 µM (≈ 12.5 µg/mL); against Micrococcus luteus, 4.99 µM (≈ 12.5 µg/mL); against Bacillus cereus, 20 µM (≈ 50 µg/mL).
Regarding `CC[C@H](C)[C@H](N)C(=O)N[C@@H](CC(C)C)C(=O)N[C@H](C(=O)N[C@@H](CC(C)C)C(=O)N[C@H](C(=O)N[C@@H](CC(C)C)C(=O)N[C@H](C(=O)N[C@@H](CC(C)C)C(=O)N[C@@H](CCCCN)C(=O)N[C@@H](CCCN=C(N)N)C(=O)N[C@@H](CCCCN)C(=O)O)[C@@H](C)CC)[C@@H](C)CC)[C@@H](C)CC` [ILILILILKRK], the MIC (in experiment [6]; in the experiment with Staphylococcus xylosus) was not below 64 µM each time.
For the compound `CC[C@H](C)[C@H](NC(=O)[C@H](C)NC(=O)[C@@H]1CCCN1C(=O)[C@H](CCCN=C(N)N)NC(=O)[C@@H](N)CC(C)C)C(=O)N[C@@H](CC(C)C)C(=O)N[C@H](C(=O)N[C@@H](CCCN=C(N)N)C(=O)N[C@H](C(=O)N[C@@H](CCCCN)C(N)=O)[C@@H](C)CC)C(C)C` [LRPAILVRIK], the MIC is 27.2 µM (≈ 32 µg/mL) in [3], not below 434 µM in [4] and not below 109 µM in experiment [5].
